Laboratory results from the supplement of paper PMC10369915.
Some of the results follow. Cut-off read from the data, not from the text of the source: active = 3.2 or more and inactive = the rest. Only a few entries rise above the background.

The binders below were run against SHP2 C-SH2 domain E139D (assay: enrichment score (SH2-bound / input frequency) (ratio); bacterial display of known human phosphotyrosine sites (pTyr-Var adds point mutants) read by sequencing; higher = stronger binding; tyrosines were phosphorylated by kinases first). Conditions: peptide library: Human pTyr.
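Note: displayed peptides selected on beads carrying the immobilized SH2 domain, with library peptides lacking any tyrosine serving as negative controls.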

Enrichment score, inactive:
GLLMTPCYTANFVAP [RPS6KA3_HUMAN_580] 1.68, KGAMAATYSALNRNQ [RPS6KA3_HUMAN_707] 0.816, GLEPVGHYEEVELTE [RPS6KB2_HUMAN_45] 1.08, DDVKEQIYKLAKKGL [RS13_HUMAN_38] 0.912, KVERADGYEPPVQES [RS3A_HUMAN_256] 1.01, VEPKTETYVEANMGL [RXRA_HUMAN_249] 0.717, FNFFRKFYNKSEDED [RYR1_HUMAN_4864] 1.09, GMGKAENYELYSVEL [ATP4A_HUMAN_7] 0.685, YFVYLGAYDRFLPYI [S22A5_HUMAN_486] 1.89, AFVALGAYDRFLPAI [S22A5_HUMAN_486_YA] 1.32, VLGDIIFYDLKDPFD [S3TC1_HUMAN_1248] 1.14, KSKFDNLYGCRESLI [SAHH_HUMAN_193] 1.65, SLSIEKGYRHWHADL [SARDH_HUMAN_777] 1.13, MELALGQYHRNGCIS [SC6A4_HUMAN_142] 1.34, SKMQQNGYENPTAKF [A4_HUMAN_757_YA] 0.864, KTVTDFCYLLDKSKQ [SCAI_HUMAN_64] 1.27, SPTEPKNYGSASTQA [SCAM3_HUMAN_83_YA] 0.788, FLVTLLIYRMKKKDE [SDC3_HUMAN_409] 0.217

The binders below were run against SHP2 C-SH2 domain wild-type in the same assay as above. Conditions: peptide library: Human pTyr.

Enrichment score, inactive:
GLLMTPCYTANFVAP [RPS6KA3_HUMAN_580] 1.47, KGAMAATYSALNRNQ [RPS6KA3_HUMAN_707] 0.697, GLEPVGHYEEVELTE [RPS6KB2_HUMAN_45] 0.888, DDVKEQIYKLAKKGL [RS13_HUMAN_38] 1, KVERADGYEPPVQES [RS3A_HUMAN_256] 0.915, VEPKTETYVEANMGL [RXRA_HUMAN_249] 0.647, FNFFRKFYNKSEDED [RYR1_HUMAN_4864] 1.05, GMGKAENYELYSVEL [ATP4A_HUMAN_7] 0.512, YFVYLGAYDRFLPYI [S22A5_HUMAN_486] 2.06, AFVALGAYDRFLPAI [S22A5_HUMAN_486_YA] 1.13, VLGDIIFYDLKDPFD [S3TC1_HUMAN_1248] 1.19, KSKFDNLYGCRESLI [SAHH_HUMAN_193] 1.3, SLSIEKGYRHWHADL [SARDH_HUMAN_777] 0.897, MELALGQYHRNGCIS [SC6A4_HUMAN_142] 1.2, SKMQQNGYENPTAKF [A4_HUMAN_757_YA] 0.796, KTVTDFCYLLDKSKQ [SCAI_HUMAN_64] 1.25, SPTEPKNYGSASTQA [SCAM3_HUMAN_83_YA] 0.685, FLVTLLIYRMKKKDE [SDC3_HUMAN_409] 0.156

What follows are binders tested against SHP2 N-SH2 domain L43F in the same assay as above. Conditions: peptide library: Human pTyr.

Enrichment score, inactive:
GLLMTPCYTANFVAP [RPS6KA3_HUMAN_580] 1.3, KGAMAATYSALNRNQ [RPS6KA3_HUMAN_707] 0.649, GLEPVGHYEEVELTE [RPS6KB2_HUMAN_45] 0.885, DDVKEQIYKLAKKGL [RS13_HUMAN_38] 0.862, KVERADGYEPPVQES [RS3A_HUMAN_256] 0.832, VEPKTETYVEANMGL [RXRA_HUMAN_249] 0.636, FNFFRKFYNKSEDED [RYR1_HUMAN_4864] 1.03, GMGKAENYELYSVEL [ATP4A_HUMAN_7] 0.58, YFVYLGAYDRFLPYI [S22A5_HUMAN_486] 1.83, AFVALGAYDRFLPAI [S22A5_HUMAN_486_YA] 1.03, VLGDIIFYDLKDPFD [S3TC1_HUMAN_1248] 1.4, KSKFDNLYGCRESLI [SAHH_HUMAN_193] 1.09, SLSIEKGYRHWHADL [SARDH_HUMAN_777] 0.906, MELALGQYHRNGCIS [SC6A4_HUMAN_142] 1.23, SKMQQNGYENPTAKF [A4_HUMAN_757_YA] 0.894, KTVTDFCYLLDKSKQ [SCAI_HUMAN_64] 1.33, SPTEPKNYGSASTQA [SCAM3_HUMAN_83_YA] 0.632, FLVTLLIYRMKKKDE [SDC3_HUMAN_409] 0.582

These binders were tested against SHP2 N-SH2 domain T42A in the same assay as above. Conditions: peptide library: Human pTyr.

Enrichment score, inactive:
GLLMTPCYTANFVAP [RPS6KA3_HUMAN_580] 1.45, KGAMAATYSALNRNQ [RPS6KA3_HUMAN_707] 0.678, GLEPVGHYEEVELTE [RPS6KB2_HUMAN_45] 1.14, DDVKEQIYKLAKKGL [RS13_HUMAN_38] 0.927, KVERADGYEPPVQES [RS3A_HUMAN_256] 1.08, VEPKTETYVEANMGL [RXRA_HUMAN_249] 0.641, FNFFRKFYNKSEDED [RYR1_HUMAN_4864] 1.14, GMGKAENYELYSVEL [ATP4A_HUMAN_7] 0.628, YFVYLGAYDRFLPYI [S22A5_HUMAN_486] 1.9, AFVALGAYDRFLPAI [S22A5_HUMAN_486_YA] 1.16, VLGDIIFYDLKDPFD [S3TC1_HUMAN_1248] 0.767, KSKFDNLYGCRESLI [SAHH_HUMAN_193] 1.36, SLSIEKGYRHWHADL [SARDH_HUMAN_777] 0.984, MELALGQYHRNGCIS [SC6A4_HUMAN_142] 2.21, SKMQQNGYENPTAKF [A4_HUMAN_757_YA] 0.972, KTVTDFCYLLDKSKQ [SCAI_HUMAN_64] 1.17, SPTEPKNYGSASTQA [SCAM3_HUMAN_83_YA] 0.544, FLVTLLIYRMKKKDE [SDC3_HUMAN_409] 0.574

These binders were tested against SHP2 N-SH2 domain T52S in the same assay as above. Conditions: peptide library: Human pTyr.

Enrichment score, inactive:
GLLMTPCYTANFVAP [RPS6KA3_HUMAN_580] 1.71, KGAMAATYSALNRNQ [RPS6KA3_HUMAN_707] 0.797, GLEPVGHYEEVELTE [RPS6KB2_HUMAN_45] 0.988, DDVKEQIYKLAKKGL [RS13_HUMAN_38] 1.05, KVERADGYEPPVQES [RS3A_HUMAN_256] 0.985, VEPKTETYVEANMGL [RXRA_HUMAN_249] 0.678, FNFFRKFYNKSEDED [RYR1_HUMAN_4864] 0.858, GMGKAENYELYSVEL [ATP4A_HUMAN_7] 0.636, YFVYLGAYDRFLPYI [S22A5_HUMAN_486] 1.9, AFVALGAYDRFLPAI [S22A5_HUMAN_486_YA] 1.01, VLGDIIFYDLKDPFD [S3TC1_HUMAN_1248] 1.02, KSKFDNLYGCRESLI [SAHH_HUMAN_193] 1.25, SLSIEKGYRHWHADL [SARDH_HUMAN_777] 1.05, MELALGQYHRNGCIS [SC6A4_HUMAN_142] 1.38, SKMQQNGYENPTAKF [A4_HUMAN_757_YA] 0.993, KTVTDFCYLLDKSKQ [SCAI_HUMAN_64] 1.28, SPTEPKNYGSASTQA [SCAM3_HUMAN_83_YA] 0.714, FLVTLLIYRMKKKDE [SDC3_HUMAN_409] 0.585

The binders below were run against SHP2 N-SH2 domain wild-type in the same assay as above. Conditions: peptide library: Human pTyr.

Enrichment score, inactive:
GLLMTPCYTANFVAP [RPS6KA3_HUMAN_580] 1.58, KGAMAATYSALNRNQ [RPS6KA3_HUMAN_707] 0.822, GLEPVGHYEEVELTE [RPS6KB2_HUMAN_45] 1.02, DDVKEQIYKLAKKGL [RS13_HUMAN_38] 0.935, KVERADGYEPPVQES [RS3A_HUMAN_256] 1.01, VEPKTETYVEANMGL [RXRA_HUMAN_249] 0.974, FNFFRKFYNKSEDED [RYR1_HUMAN_4864] 1.17, GMGKAENYELYSVEL [ATP4A_HUMAN_7] 0.566, YFVYLGAYDRFLPYI [S22A5_HUMAN_486] 2.4, AFVALGAYDRFLPAI [S22A5_HUMAN_486_YA] 1.29, VLGDIIFYDLKDPFD [S3TC1_HUMAN_1248] 1.06, KSKFDNLYGCRESLI [SAHH_HUMAN_193] 1.2, SLSIEKGYRHWHADL [SARDH_HUMAN_777] 1.31, MELALGQYHRNGCIS [SC6A4_HUMAN_142] 1.3, SKMQQNGYENPTAKF [A4_HUMAN_757_YA] 1, KTVTDFCYLLDKSKQ [SCAI_HUMAN_64] 1.42, SPTEPKNYGSASTQA [SCAM3_HUMAN_83_YA] 0.602, FLVTLLIYRMKKKDE [SDC3_HUMAN_409] 0.443
